# Source: the supplement of paper PMC8728848
# The list shows a part of the results.
# Assays:
# Assay in all cases: glycan array binding signal (z-score within array); higher = stronger binding
# Conditions in all cases: glycan notation: IUPAC condensed, linker removed
# Gal(a1-3)GalNAc = target: Gal(a1-3)GalNAc
# In short: (§1)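 From the Consortium for Functional Glycomics database, 3228 arrays were curated, keeping only those whose protein sequence was available. Binding is given as a within-array Z-score averaged across arrays sharing a protein sequence and across linkers. Negative Z-scores can be read as non-binding.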
# [1] = target: Gal(a1-3)[Gal(a1-4)]Gal(b1-4)GlcNAc
# In short: as §1
# [2] = target: Gal(a1-4)Gal(b1-3)GlcNAc(b1-2)Man(a1-3)[Gal(a1-4)Gal(b1-3)GlcNAc(b1-2)Man(a1-6)]Man(b1-4)GlcNAc(b1-4)GlcNAc
# In short: as §1
# Gal(a1-4)Gal(b1-4)Glc = target: Gal(a1-4)Gal(b1-4)Glc
# In short: as §1
# Gal(a1-4)Gal(b1-4)GlcNAc = target: Gal(a1-4)Gal(b1-4)GlcNAc
# In short: as §1
# [3] = target: Gal(a1-4)Gal(b1-4)GlcNAc(b1-2)Man(a1-3)[Gal(a1-4)Gal(b1-4)GlcNAc(b1-2)Man(a1-6)]Man(b1-4)GlcNAc(b1-4)GlcNAc
# In short: as §1
# [4] = target: Gal(a1-4)Gal(b1-4)GlcNAc(b1-3)Gal(b1-4)Glc
# In short: as §1
# Gal(a1-4)GlcNAc = target: Gal(a1-4)GlcNAc
# In short: as §1
# Gal(a1-6)Glc = target: Gal(a1-6)Glc
# In short: as §1
# Gal(b1-2)Gal = target: Gal(b1-2)Gal
# In short: as §1
# Gal(b1-3)Gal = target: Gal(b1-3)Gal
# In short: as §1
# Gal(b1-3)Gal(b1-4)GlcNAc = target: Gal(b1-3)Gal(b1-4)GlcNAc
# In short: as §1
# Gal(b1-3)GalNAc = target: Gal(b1-3)GalNAc
# In short: as §1
# [5] = target: Gal(b1-3)GalNAc(a1-3)[Fuc(a1-2)]Gal(b1-4)Glc
# In short: as §1
# [6] = target: Gal(b1-3)GalNAc(a1-3)[Fuc(a1-2)]Gal(b1-4)GlcNAc
# In short: as §1
# Gal(b1-3)GalNAc(b1-3)Gal = target: Gal(b1-3)GalNAc(b1-3)Gal
# In short: as §1
# [7] = target: Gal(b1-3)GalNAc(b1-3)Gal(a1-4)Gal(b1-4)Glc
# In short: as §1
# [8] = target: Gal(b1-3)GalNAc(b1-4)Gal(b1-4)Glc
# In short: as §1
# [9] = target: Gal(b1-3)GalNAc(b1-4)[Neu5Ac(a2-3)]Gal(b1-4)Glc
# In short: as §1
# Gal(b1-3)GlcNAc = target: Gal(b1-3)GlcNAc
# In short: as §1
# [10] = target: Gal(b1-3)GlcNAc(a1-3)Gal(b1-4)GlcNAc
# In short: as §1
# [11] = target: Gal(b1-3)GlcNAc(a1-6)Gal(b1-4)GlcNAc
# In short: as §1
# Gal(b1-3)GlcNAc(b1-2)Man = target: Gal(b1-3)GlcNAc(b1-2)Man
# In short: as §1
# [12] = target: Gal(b1-3)GlcNAc(b1-2)Man(a1-3)[Gal(b1-3)GlcNAc(b1-2)Man(a1-6)]Man(b1-4)GlcNAc(b1-4)GlcNAc
# In short: as §1
# [13] = target: Gal(b1-3)GlcNAc(b1-2)Man(a1-3)[Gal(b1-3)GlcNAc(b1-2)Man(a1-6)]Man(b1-4)GlcNAc(b1-4)[Fuc(a1-6)]GlcNAc
# In short: as §1
# [14] = target: Gal(b1-3)GlcNAc(b1-2)Man(a1-3)[GlcNAc(b1-4)][Gal(b1-3)GlcNAc(b1-2)Man(a1-6)]Man(b1-4)GlcNAc(b1-4)GlcNAc
# In short: as §1
# [15] = target: Gal(b1-3)GlcNAc(b1-2)[Gal(b1-3)GlcNAc(b1-6)]Man(a1-6)[Gal(b1-3)GlcNAc(b1-2)Man(a1-3)]Man(b1-4)GlcNAc(b1-4)GlcNAc
# In short: as §1
# [16] = target: Gal(b1-3)GlcNAc(b1-3)Gal(b1-3)GlcNAc
# In short: as §1
# [17] = target: Gal(b1-3)GlcNAc(b1-3)Gal(b1-4)Glc
# In short: as §1
# [18] = target: Gal(b1-3)GlcNAc(b1-3)Gal(b1-4)GlcNAc
# In short: as §1
# [19] = target: Gal(b1-3)GlcNAc(b1-3)Gal(b1-4)GlcNAc(b1-2)Man(a1-3)[Gal(b1-3)GlcNAc(b1-3)Gal(b1-4)GlcNAc(b1-2)Man(a1-6)]Man(b1-4)GlcNAc(b1-4)GlcNAc
# In short: as §1
# [20] = target: Gal(b1-3)GlcNAc(b1-3)Gal(b1-4)GlcNAc(b1-2)[Gal(b1-3)GlcNAc(b1-3)Gal(b1-4)GlcNAc(b1-6)]Man(a1-6)[Gal(b1-3)GlcNAc(b1-3)Gal(b1-4)GlcNAc(b1-2)Man(a1-3)]Man(b1-4)GlcNAc(b1-4)[Fuc(a1-6)]GlcNAc
# In short: as §1
# [21] = target: Gal(b1-3)GlcNAc(b1-3)Gal(b1-4)GlcNAc(b1-3)Gal(b1-4)GlcNAc(b1-2)[Gal(b1-3)GlcNAc(b1-3)Gal(b1-4)GlcNAc(b1-3)Gal(b1-4)GlcNAc(b1-6)]Man(a1-6)[Gal(b1-3)GlcNAc(b1-3)Gal(b1-4)GlcNAc(b1-3)Gal(b1-4)GlcNAc(b1-2)Man(a1-3)]Man(b1-4)GlcNAc(b1-4)[Fuc(a1-6)]GlcNAc
# In short: as §1
# [22] = target: Gal(b1-3)GlcNAc(b1-3)Gal(b1-4)GlcNAc(b1-6)[Gal(b1-3)GlcNAc(b1-3)]Gal(b1-4)Glc
# In short: as §1
# [23] = target: Gal(b1-3)GlcNAc(b1-3)Gal(b1-4)[Fuc(a1-3)]GlcNAc
# In short: as §1
# [24] = target: Gal(b1-3)GlcNAc(b1-3)Gal(b1-4)[Fuc(a1-3)]GlcNAc(b1-6)[Gal(b1-3)GlcNAc(b1-3)]Gal(b1-4)Glc
# In short: as §1
# [25] = target: Gal(b1-3)GlcNAc(b1-3)GalNAc
# In short: as §1
# [26] = target: Gal(b1-3)GlcNAc(b1-6)Gal(b1-4)GlcNAc
# In short: as §1
binder,measurement,setting,value
"SSP1 (Sclerotinia sclerotiorum), XP_001584968 (protein) MGSSHHHHHHSSGLVPRGSHMSLLTTELACTSAPDQVLHLFFQDGQNILEARSPDGGNVWTTQDTIIAKDGDYNGSSMTCYYVDKDANFDNQPSIHLLYMNKDKQLTEKVKRMKGDNPIWEDAKVPDEVRKGPEQYSKLTSGSFNQGTGWNPNGSQWAYFSASKDGKMGIVEIRRTPKDPWHTETILEEKWGDELPGTALACVIGNGKIRVFLQHHDYSIILYENQNNTWHDRGTFIPKDKVQATTPLACTMTKDGSVHLFYVSKSNKIIHCTDGKKEEELINFFPGSKLGATSVENKITLFFRNLNPVNEVGTLENENGSWKHGTTVIPA",glycan array binding signal (z-score),Gal(a1-3)GalNAc,0.281
same,glycan array binding signal (z-score),[1],2.85
same,glycan array binding signal (z-score),[2],0.003
same,glycan array binding signal (z-score),Gal(a1-4)Gal(b1-4)Glc,0.063
same,glycan array binding signal (z-score),Gal(a1-4)Gal(b1-4)GlcNAc,-0.009
same,glycan array binding signal (z-score),[3],0.593
same,glycan array binding signal (z-score),[4],-0.235
same,glycan array binding signal (z-score),Gal(a1-4)GlcNAc,-0.456
same,glycan array binding signal (z-score),Gal(a1-6)Glc,-0.393
same,glycan array binding signal (z-score),Gal(b1-2)Gal,0.5
same,glycan array binding signal (z-score),Gal(b1-3)Gal,0.017
same,glycan array binding signal (z-score),Gal(b1-3)Gal(b1-4)GlcNAc,-0.589
same,glycan array binding signal (z-score),Gal(b1-3)GalNAc,-0.111
same,glycan array binding signal (z-score),[5],-0.29
same,glycan array binding signal (z-score),[6],3.1
same,glycan array binding signal (z-score),Gal(b1-3)GalNAc(b1-3)Gal,-0.512
same,glycan array binding signal (z-score),[7],-0.113
same,glycan array binding signal (z-score),[8],-0.197
same,glycan array binding signal (z-score),[9],-0.812
same,glycan array binding signal (z-score),Gal(b1-3)GlcNAc,0.089
same,glycan array binding signal (z-score),[10],-0.511
same,glycan array binding signal (z-score),[11],-0.495
same,glycan array binding signal (z-score),Gal(b1-3)GlcNAc(b1-2)Man,-0.198
same,glycan array binding signal (z-score),[12],1.07
same,glycan array binding signal (z-score),[13],5.12
same,glycan array binding signal (z-score),[14],-0.377
same,glycan array binding signal (z-score),[15],-0.073
same,glycan array binding signal (z-score),[16],-0.401
same,glycan array binding signal (z-score),[17],-0.397
same,glycan array binding signal (z-score),[18],0.056
same,glycan array binding signal (z-score),[19],-0.174
same,glycan array binding signal (z-score),[20],0.163
same,glycan array binding signal (z-score),[21],0.7
same,glycan array binding signal (z-score),[22],-0.487
same,glycan array binding signal (z-score),[23],-0.451
same,glycan array binding signal (z-score),[24],-0.483
same,glycan array binding signal (z-score),[25],-0.435
same,glycan array binding signal (z-score),[26],-0.416
